Out of some 270,000 compounds screened, about 5,800 (2.1%) were called active. The shares of active, inactive and inconclusive entries below differ from those in the screen. Calls follow the shape of the dose curve; as a rule, active = well fitted inhibition curve with a large enough effect; inconclusive = small, poorly fitted or top-dose-only effect; inactive = flat fitted curve, though single readings scatter. Potencies beside an inconclusive call are fits to weak or partial responses and may not hold up.
biological target: Microtubule-associated protein tau (Homo sapiens) (UniProt P10636); assay: qHTS for Inhibitors of Tau Fibril Formation, Thioflavin T Binding; settings: recombinant tau K18 P301L, heparin-induced fibrillization, ThT fluorescence; series mostly up to 57.4 µM; also: nearly all actives have a fitted effect of over 55% in size
UniProt P10636, sequence (P10636 whole entry, looked up): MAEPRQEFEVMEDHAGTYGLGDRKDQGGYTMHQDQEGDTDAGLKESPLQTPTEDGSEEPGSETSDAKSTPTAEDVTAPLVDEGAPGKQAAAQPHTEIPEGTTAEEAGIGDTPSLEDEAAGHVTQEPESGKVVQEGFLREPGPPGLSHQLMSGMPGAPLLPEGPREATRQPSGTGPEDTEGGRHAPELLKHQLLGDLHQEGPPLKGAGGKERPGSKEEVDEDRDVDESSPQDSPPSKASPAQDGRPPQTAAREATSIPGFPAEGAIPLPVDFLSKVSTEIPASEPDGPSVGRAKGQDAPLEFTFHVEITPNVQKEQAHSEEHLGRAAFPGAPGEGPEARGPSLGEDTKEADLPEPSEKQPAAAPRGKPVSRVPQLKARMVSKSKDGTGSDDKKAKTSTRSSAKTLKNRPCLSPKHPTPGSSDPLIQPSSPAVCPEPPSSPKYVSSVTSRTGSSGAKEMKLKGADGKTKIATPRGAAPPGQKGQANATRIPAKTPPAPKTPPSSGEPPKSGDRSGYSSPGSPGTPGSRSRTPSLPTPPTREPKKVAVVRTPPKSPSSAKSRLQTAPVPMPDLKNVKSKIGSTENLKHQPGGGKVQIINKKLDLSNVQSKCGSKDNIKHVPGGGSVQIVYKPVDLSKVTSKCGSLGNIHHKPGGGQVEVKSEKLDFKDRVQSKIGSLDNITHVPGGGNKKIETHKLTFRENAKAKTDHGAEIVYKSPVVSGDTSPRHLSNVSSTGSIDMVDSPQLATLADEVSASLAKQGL
Procedure, shortened: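 Using a mix of unlabeled (15 uM) and Alexa 594-labeled (0.24 uM) tau K18 P301L, heparin-triggered fibrillization over 6 hr at 37 C was scored by ThT fluorescence.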
Potency is read from the fitted curve at half-maximal effect; tags tell the direction and shape of the fitted curve.

SMILES | Potency
OCc1ccc(-c2nn(Cc3ccccc3)c3ccccc23)o1 | inconclusive: 25.1 µM [inhibitor, single point]
CCc1c(C)sc(NC(=O)OC)c1C(=O)N1CCCCC1 | inactive
COc1cc(S(=O)(=O)Nc2ccccc2)ccc1N=Cc1c(C)[nH]n(-c2ccc(C)cc2)c1=O | inconclusive: 15.8 µM [inhibitor, partial curve]
CO/N=C(\C(=O)N[C@@H]1C(=O)N2C(C(=O)O)=C(COC(C)=O)CS[C@H]12)c1csc(N)n1 (stereo in doubt) | inconclusive: 14.1 µM [inhibitor, partial curve]
O=C1N=C(N2CCCC2)S/C1=C\C=C\c1ccccc1 | inconclusive: 3.98 µM [inhibitor, partial curve]
Cc1ccc(S(=O)(=O)c2nnn3c2nc(N2CCN(c4ccc(F)cc4)CC2)c2cc(Cl)ccc23)cc1C | inactive
COc1cccc(C2C(C(=O)Nc3ccc(C)cc3C)=C(C)Nc3ncnn32)c1OC (stereo unspecified) | inconclusive: 3.16 µM [inhibitor, single point]
O=C(OCC(=O)c1c[nH]c2ccccc12)c1ccc([N+](=O)[O-])s1 | inactive
Cn1nc(-c2ccccc2)c(-c2nc(-c3ccc(Cl)cc3)no2)c1Cl | inconclusive: 39.8 µM [inhibitor, single point]
COc1ccc(S(=O)(=O)N[C@@H](Cc2ccccc2)C(=O)N2CC[C@@]3(O)CCCC[C@H]3C2)cc1 | inactive
O=C(Cc1cccs1)N1CCN(c2ccc([N+](=O)[O-])cc2)CC1 | active: 3.55 µM
CCn1c(SCC(=O)Nc2ccc(OC)c(OC)c2)nnc1-c1c[nH]c2ccccc12 | inconclusive: 31.6 µM [inhibitor, partial curve, poor fit]
CC(C)c1ccc(NC(=O)c2csnn2)cc1 | inactive
COc1ccc2nc(SCC(=O)c3c(C)[nH]c4ccccc34)nc(C)c2c1 | inconclusive: 1.78 µM [inhibitor, full curve]
COc1ccc(OC)c(NC(=O)c2ccc(OC3CSC3)cc2)c1 | inconclusive: 20 µM [inhibitor, partial curve]
CS(=O)(=O)n1nc(OC(=O)c2cccc3ccccc23)cc1N | inconclusive: 3.16 µM [inhibitor, full curve]
CCOc1ccccc1OCCOc1ccccc1CC | inconclusive: 22.4 µM [inhibitor, single point]
CCOc1ccc(NC(=O)Cn2ccn(-c3ccc(F)c(F)c3)c(=O)c2=O)cc1 | inactive
C#CCn1c(S(=O)(=O)Cc2ccc(F)cc2)nc(-c2ccccc2)c1-c1ccccc1 | inactive
CCOC(=O)C1=C(C)NC(=O)NC1c1cccs1 (stereo unspecified) | inactive
CCOc1ccc(/C=C\C(C)=N\O)cc1 | inconclusive: 17.8 µM [inhibitor, partial curve]
Cc1ccc2[nH]c(=O)c(CNC(C)(C)C)cc2c1 | inactive
CCOC(=O)c1c(-c2ccc(F)cc2)csc1NC(=O)C1CCCO1 (stereo unspecified) | inactive

SMILES | Potency
Cc1ccc2[nH]c(=O)c(C(c3nnnn3CC3CCCO3)N3CCc4ccccc4C3)cc2c1 (stereo unspecified) | active: 31.6 µM
COC(=O)c1cccc(NC(=O)c2cc(OC)c(OC)c(OC)c2Br)c1 | inactive
O=C(O)Cc1cc(C(=O)Nc2ccc(Br)cc2)sc1-c1ccccc1 | inconclusive: 39.8 µM [activator, single point]
O=C1Nc2ccc3sc4ccccc4c3c2C1=O | active: 4.47 µM
O=C(c1ccc2c(Cl)c3c(nc2c1)CCCC3)N1CCN(c2ccc(F)cc2)CC1 | inconclusive: 31.6 µM [inhibitor, partial curve]
Cc1nc2ccc(NC(=S)NCCCO)cc2nc1C | inconclusive: 31.6 µM [inhibitor, single point]
CC1=C(c2ccc(C)cc2)S(=O)(=O)N(Cc2ccc(C(=O)Nc3ccc(F)cc3C)cc2)C1=O | inactive
COC(=O)c1c(NS(=O)(=O)c2ccc(C)cc2)sc2c1CCC(C)C2 (stereo unspecified) | inconclusive: 28.2 µM [inhibitor, partial curve, poor fit]
O=C(CCC(=O)N/N=C/c1ccc(Br)s1)NCc1ccccc1 | inactive
CCn1c(-c2nn(C)cc2Cl)n[nH]c1=S | inactive
CCc1nc(Nc2ccccc2)c2oc3ccccc3c2n1 | inactive
O=[N+]([O-])c1cc2cccnc2c2ncccc12 | inconclusive: 31.6 µM [inhibitor, single point]
Cc1ccc(S(=O)(=O)Nc2ccc(N=Nc3ccc(O)cc3)cc2)cc1 | active: 14.1 µM
Cc1cccc(OCc2nc(-c3ccc(Br)o3)no2)c1 | inconclusive: 22.4 µM [inhibitor, partial curve]
CC(c1ccc(Cl)cc1)n1c(-c2ccc3ccccc3n2)n[nH]c1=S (stereo unspecified) | inconclusive: 39.8 µM [inhibitor, single point]
Cc1noc(/C=C/N(C)C)c1S(=O)(=O)N1CCCC(C(=O)Nc2ccc3c(c2)OCO3)C1 (stereo unspecified) | inconclusive: 14.1 µM [inhibitor, partial curve]
C[n+]1cccc(/C=N/Nc2nc(Cl)c(C#N)c(Cl)c2Cl)c1 | inconclusive: 20 µM [inhibitor, partial curve]
COC(=O)c1ccc(OCC(O)CN2C(=O)c3ccccc3S2(=O)=O)cc1 (stereo unspecified) | inconclusive: 25.1 µM [inhibitor, partial curve]
CCOC(=O)C1CCN(C(=O)C2CCN(C3=NS(=O)(=O)C(c4ccc(C)c(C)c4)=C3C)CC2)CC1 | inconclusive: 17.8 µM [inhibitor, partial curve]
COc1ccc(/C=N\NC(=O)c2cc(O)c(O)c(O)c2)cc1CN1CCN(c2ccc(F)cc2)CC1 | inconclusive: 8.91 µM [inhibitor, partial curve]
Cc1ccc(CNC(=O)Cn2cc(C(=O)c3ccc(F)cc3)c(=O)c3ccc(C)nc32)cc1 | inactive
CC1(c2ccccc2)CC(c2ccccc2)=Nc2ccccc2N1 (stereo unspecified) | inconclusive: 35.5 µM [inhibitor, single point]
O=C(/C=C/c1ccccc1)N/C(=C/c1ccccc1)C(=O)N1CCOCC1 | inactive

Source: PubChem BioAssay AID1460 (National Center for Advancing Translational Sciences (NCATS), 2008)
